{"source": "PubChem BioAssay AID1345083", "about": "(National Center for Advancing Translational Sciences (NCATS), 2018)", "note": "Screen size: about 94,000 compounds; about 6,200 (6.6%) were called active. This list was built around the results that the source calls inconclusive (neither active nor inactive); the mix of calls is not that of the screen. The call rests on the fitted dose curve; in most records, active means well fitted inhibition curve with a large enough effect; inconclusive means small, poorly fitted or top-dose-only effect; inactive means flat fitted curve, though single readings scatter. Potencies beside an inconclusive call are fits to weak or partial responses and may not hold up. On the % scale 0 is the no-effect control and ±100 the full control effect; potency means the concentration at half of the fitted maximal effect; tags describe the fitted curve by direction and shape."}
{"assay": "Cytotoxic Profiling in HEK 293 Cell Line of Diverse Libraries Using Quantitative High-Throughput Screening; further: nearly all actives have a fitted effect of over 60% in size", "conditions": "HEK 293 viability, ATP luminescence (CellTiter-Glo), 48-72 h; activity change, negative = cytotoxicity: at 115 µM (top of the series) unless noted; series mostly up to 115 µM", "how_it_was_run": "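Luminescence from cellular ATP, measured with CellTiter-Glo, indicates HEK 293 viability. Cells plated at 250 cells/well are treated with compound for 48 or 72 hr at 37 degree Celsius before reagent addition.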"}
{"smiles": "CCCNC(=O)C1CC(c2ccccc2F)=NO1", "note": "(stereo not drawn)", "activity change, negative = cytotoxicity": "inactive: 21.3%"}
{"smiles": "CCOC(=O)C1CCCCN1C(=O)c1c(C)oc2c1CN(Cc1cccc(F)c1)CC2", "note": "(stereo not drawn)", "Potency": "inconclusive: 89.1 µM [inhibitor, single point]"}
{"smiles": "COc1ncc(-c2ccnc(-c3nnc(C)n3CCN3CCOCC3)c2)cn1", "activity change, negative = cytotoxicity": "inactive: -0.414% [at 172 µM]"}
{"smiles": "O=C(CCc1ccccc1)N1CCC2(CC1)N=C(c1ccc(Cl)cc1)NO2", "Potency": "inconclusive: 89.1 µM [inhibitor, single point]"}
{"smiles": "Cc1nc(-c2cn(C3CCCN(C(=O)c4cccc(C#N)c4)C3)nn2)no1", "note": "(stereo not drawn)", "activity change, negative = cytotoxicity": "inactive: -5.78%"}
{"smiles": "COc1ccc(CN2CC(COc3ccccc3)C3(C2)CN(c2ccccc2)C3)cc1O", "note": "(stereo not drawn)", "Potency": "active: 28.2 µM"}
{"smiles": "COc1ccc(-c2nn(-c3ccccc3C)cc2CN2CCCN(C)CC2)cc1F", "Potency": "inconclusive: 56.2 µM [inhibitor, partial curve, poor fit]"}
{"smiles": "COc1ccc(OCc2nc(C)c(CCO)c(=O)n2CC(=O)Nc2cccc(Cl)c2)cc1", "Potency": "inconclusive: 79.4 µM [inhibitor, single point]"}
{"smiles": "O=C1NCc2ccccc2CC12CCCN2Cc1ccc2ccccc2n1", "note": "(stereo not drawn)", "Potency": "inconclusive: 89.1 µM [inhibitor, partial curve, poor fit]"}
{"smiles": "CNC(=O)[C@@H](C1CC1)N1CCC[C@H]1C(=O)N1CCOCC1", "outcome": "inactive [at 172 µM]"}
{"smiles": "CCCCCNC(=O)CNC(=O)c1ccc(-c2cnc3ccccc3c2)cc1", "Potency": "inconclusive: 50.1 µM [inhibitor, partial curve, poor fit]"}
{"smiles": "O=C(c1ccccc1Cl)N1CCC2(CC1)CCN(Cc1cccs1)c1ccccc1O2", "Potency": "inconclusive: 50.1 µM [inhibitor, partial curve, poor fit]"}
{"smiles": "COCCNC(=O)C[C@@H]1C[C@H]2O[C@H](CNCc3ncccc3C)[C@@H](O)[C@H]2O1", "activity change, negative = cytotoxicity": "inactive: -2.53% [at 172 µM]"}
{"smiles": "CCN(CC)Cc1ccc2c(c1)CNCCO2", "activity change, negative = cytotoxicity": "inactive: -0.0302%"}
{"smiles": "CC(C)NC(=O)C1CCCN1C(=O)c1cccc(-c2ccccn2)c1", "note": "(stereo not drawn)", "outcome": "inactive"}
{"smiles": "Cc1nc2c(s1)C[C@]1(C)CCC([C@H](C)C(=O)N3CCOCC3)[C@H](O)[C@H]1[C@@H]2C", "note": "(stereo partly drawn)", "activity change, negative = cytotoxicity": "inactive: -11.9% [at 172 µM]"}
{"smiles": "O=C(c1cn[nH]c1-c1ccccc1)N1CCC2(CC1)CC(O)CCO2", "note": "(stereo not drawn)", "activity change, negative = cytotoxicity": "inactive: -1.3%"}
{"smiles": "Cn1nccc1CN1CCC2(CC1)COc1ccccc1NC2=O", "Potency": "inconclusive: 126 µM [inhibitor, single point]"}
{"smiles": "Cc1ccc(-c2nocc2CCC(=O)N2CCN(c3ccccc3F)CC2)cc1", "Potency": "inconclusive: 70.8 µM [inhibitor, single point]"}
{"smiles": "CN(Cc1ccc(F)cc1)C(=O)Cc1ccc(F)cc1", "Potency": "inconclusive: 89.1 µM [inhibitor, partial curve, poor fit]"}
{"smiles": "Cc1noc(C)c1S(=O)(=O)N1CCC2(CC1)CC(Cc1ccc(F)cc1)CCO2", "note": "(stereo not drawn)", "Potency": "inconclusive: 44.7 µM [inhibitor, partial curve, poor fit]"}
{"smiles": "Cc1cccc(CNC(=O)C2Cn3cccc3C(=O)N2CC(C)C)c1", "note": "(stereo not drawn)", "activity change, negative = cytotoxicity": "inactive: -18.7%"}
{"smiles": "CCCCNC(=O)[C@@H]1CCCC[C@@H]1C(=O)N1CC(n2nc(C)cc2C)C1", "activity change, negative = cytotoxicity": "inactive: -1.05%"}
{"smiles": "CN(C)C(=O)NCCNC(=O)c1ccc(-c2cccc(C(F)(F)F)c2)cc1", "Potency": "active: 28.2 µM"}
{"smiles": "COc1ccc(C2Cn3cnc(-c4nc(-c5ccc(OC)cc5OC)no4)c3CO2)cc1", "note": "(stereo not drawn)", "Potency": "inconclusive: 44.7 µM [inhibitor, partial curve, poor fit]"}
{"smiles": "O=C(NCCc1ccccc1)N1CCCCC1c1noc(COCC2CC2)n1", "note": "(stereo not drawn)", "Potency": "inconclusive: 56.2 µM [inhibitor, partial curve, poor fit]"}
{"smiles": "O=C1C(N2CCN(S(=O)(=O)c3ccc(F)c(F)c3)CC2)CCN1Cc1cccnc1", "note": "(stereo not drawn)", "Potency": "inconclusive: 31.6 µM [inhibitor, full curve, poor fit]"}
{"smiles": "COc1ccc(N2CC(c3noc(-c4ccc(OC)cc4OC)n3)CC2=O)cc1", "note": "(stereo not drawn)", "Potency": "inconclusive: 44.7 µM [inhibitor, partial curve]"}
{"smiles": "Fc1cccc(-c2cc3c(cn2)CN(Cc2ccncc2)CCN3)c1", "Potency": "inconclusive: 100 µM [inhibitor, partial curve]"}
{"smiles": "COc1coc(C(=O)N2CCOCC2CC(=O)NC2CCCC2)cc1=O", "note": "(stereo not drawn)", "activity change, negative = cytotoxicity": "inactive: -34%"}
{"smiles": "Cc1cn2nc(C(=O)NCc3ccc(F)cc3F)cc2c(N2CCSCC2)n1", "Potency": "inconclusive: 89.1 µM [inhibitor, single point]"}
{"smiles": "Cn1cnc2cc(-c3cccc4[nH]ccc34)cc(C(=O)NCc3cccnc3)c21", "Potency": "inconclusive: 63.1 µM [inhibitor, partial curve]"}
{"smiles": "O=C(N[C@H]1[C@H](O)[C@H](O)C[C@@H]1c1ccc(C(F)(F)F)nc1)c1cc2ccccc2s1", "Potency": "inconclusive: 100 µM [inhibitor, partial curve]"}
{"smiles": "Cc1ccc(NC(=O)Nc2ccc(C)n(CC(=O)NCCC(C)C)c2=O)cc1", "Potency": "active: 28.2 µM"}
{"smiles": "CS(=O)(=O)N1CCC(OC2CCN(C(=O)Nc3cccc(C(F)(F)F)c3)CC2)CC1", "Potency": "inconclusive: 44.7 µM [inhibitor, partial curve, poor fit]"}
{"smiles": "COc1ccccc1-c1cnc(Nc2ccc(Cl)cn2)c2c1CCO2", "Potency": "active: 63.1 µM"}
{"smiles": "Cc1ccc(CN2CC3(Cc4ccccc4NC3=O)C2)cc1", "Potency": "inconclusive: 126 µM [inhibitor, single point]"}
{"smiles": "COc1cccc([S+](=O)([O-])N2CCCC3(C2)C(=NC2CCCCC2)NC(=O)N3c2cc(F)cc(F)c2)c1", "note": "(stereo not drawn)", "activity change, negative = cytotoxicity": "inactive: -17.6%"}
{"smiles": "C[S+](=O)([O-])N1CCC2(CC1)CC(c1cccc(C(F)(F)F)c1)=NO2", "Potency": "inconclusive: 50.1 µM [inhibitor, partial curve, poor fit]"}
{"smiles": "COc1ccc(C)cc1-c1ccc(COc2ccc3c(cnn3CCC(=O)O)c2)cc1", "Potency": "inconclusive: 126 µM [inhibitor, single point]"}
{"smiles": "CNC(=O)c1cc(C)nc2onc(C3CCN(C(=O)c4ccc(Cl)nc4)C3)c12", "note": "(stereo not drawn)", "activity change, negative = cytotoxicity": "inactive: -8.68%"}
{"smiles": "COc1cccc(-c2ccc(C(=O)N3CCC(NC(=O)c4ccccc4OC)CC3)cc2)c1", "Potency": "inconclusive: 56.2 µM [inhibitor, partial curve, poor fit]"}
{"smiles": "CN(C(=O)C1CC1)C1CCCc2ccccc21", "note": "(stereo not drawn)", "Potency": "inconclusive: 126 µM [inhibitor, partial curve, poor fit]"}
